# From PubChem BioAssay AID504339 (National Center for Advancing Translational Sciences (NCATS), 2011)
# Out of some 390,000 compounds screened, about 17,000 (4.4%) were called active. The shares of active, inactive and inconclusive entries below differ from those in the screen. Calls come from the whole dose curve; as a rule, active = well fitted inhibition curve with a large enough effect; inconclusive = small, poorly fitted or top-dose-only effect; inactive = no such curve, though single readings can be large or run the other way. Potencies beside an inconclusive call are fits to weak or partial responses and may not hold up.
# Biological target: Lysine-specific demethylase 4A (Homo sapiens) (UniProt O75164)
# UniProt O75164, sequence (O75164 whole entry, looked up, the tested form may be a part): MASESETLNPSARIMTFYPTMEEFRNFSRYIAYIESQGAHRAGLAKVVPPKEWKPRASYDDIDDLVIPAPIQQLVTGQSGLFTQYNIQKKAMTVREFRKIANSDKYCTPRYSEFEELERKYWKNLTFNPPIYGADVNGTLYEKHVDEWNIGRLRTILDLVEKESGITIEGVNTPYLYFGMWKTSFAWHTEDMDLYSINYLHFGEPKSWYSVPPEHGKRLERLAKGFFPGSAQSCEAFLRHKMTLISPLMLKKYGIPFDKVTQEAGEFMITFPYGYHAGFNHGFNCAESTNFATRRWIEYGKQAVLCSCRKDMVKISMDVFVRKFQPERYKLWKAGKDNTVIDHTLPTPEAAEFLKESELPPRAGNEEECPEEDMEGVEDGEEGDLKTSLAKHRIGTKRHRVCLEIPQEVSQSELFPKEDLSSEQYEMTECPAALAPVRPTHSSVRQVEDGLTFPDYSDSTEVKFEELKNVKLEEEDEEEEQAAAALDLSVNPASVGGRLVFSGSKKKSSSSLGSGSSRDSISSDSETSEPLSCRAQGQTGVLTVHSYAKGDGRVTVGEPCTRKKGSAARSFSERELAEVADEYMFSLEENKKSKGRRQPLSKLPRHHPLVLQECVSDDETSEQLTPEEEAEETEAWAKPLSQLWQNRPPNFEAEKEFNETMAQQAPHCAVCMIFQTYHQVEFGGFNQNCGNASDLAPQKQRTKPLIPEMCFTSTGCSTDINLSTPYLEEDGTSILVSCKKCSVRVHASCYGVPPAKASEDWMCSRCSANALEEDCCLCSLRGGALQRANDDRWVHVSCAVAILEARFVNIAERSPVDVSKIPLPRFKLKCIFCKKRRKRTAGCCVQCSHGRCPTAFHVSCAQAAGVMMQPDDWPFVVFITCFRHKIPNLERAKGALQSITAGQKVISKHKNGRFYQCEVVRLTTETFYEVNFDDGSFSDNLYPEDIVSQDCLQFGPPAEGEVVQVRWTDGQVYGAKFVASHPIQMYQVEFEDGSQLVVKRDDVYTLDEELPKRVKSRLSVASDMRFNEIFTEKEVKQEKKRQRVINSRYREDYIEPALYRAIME
# Experiment: qHTS Assay for Inhibitors of JMJD2A-Tudor Domain; note: nearly all actives have a fitted effect of over 50% in size
# Settings: AlphaScreen JMJD2A-Tudor / H3K4me3 peptide binding; series mostly up to 114 µM
# Potency is the fitted concentration of half-maximal effect; tags give direction and shape of the fitted curve.
row,Compound,Potency
1,CCOc1ccc(NC(=O)Cn2cnc3c(oc4ccccc43)c2=O)cc1,"inconclusive: 35.5 µM [inhibitor, full curve]"
2,CCNC1(C#N)CCN(Cc2ccccc2)CC1,"inconclusive: 31.6 µM [inhibitor, partial curve]"
3,COc1ccccc1-c1sc2cc3c(cc2c1-c1ccc2c(c1)OCO2)OCO3,inactive
4,Cc1cc(C(=O)OCC(=O)Nc2c(F)cccc2F)c(C)n1-c1ccccc1,active: 20 µM
5,O=C(Nc1cccc(Cl)c1)c1ccc(NCCCN2CCOCC2)c([N+](=O)[O-])c1,"inconclusive: 56.2 µM [inhibitor, partial curve]"
6,CCc1ccc(NC(=O)[C@H](NC(=O)[C@@H]2Cc3ccccc3CN2)c2ccccc2)cc1,"inconclusive: 56.2 µM [inhibitor, partial curve]"
7,C=CCn1c(C)cc(C(=O)CN2C(=O)c3ccccc3S2(=O)=O)c1C,"inconclusive: 50.1 µM [inhibitor, partial curve]"
8,CC(C)c1ccc(O)c(NC(=O)c2cccnc2)c1,inactive
9,O=C(COC(=O)c1cnc(Cl)c(Cl)c1)NCc1ccco1,"inconclusive: 44.7 µM [inhibitor, partial curve]"
10,COc1ccccc1NS(=O)(=O)c1cc(NC(=O)c2cc[n+]([O-])cc2)ccc1N1CCCC1,active: 63.1 µM
11,COc1ccccc1C(c1nnnn1C(C)(C)C)N1CCN(Cc2ccccc2)CC1 (configuration not stated),"inconclusive: 89.1 µM [inhibitor, single point]"
12,COc1ccc2cc1Oc1ccc(cc1)C[C@H]1c3c(cc(OC)c4c3Oc3c(ccc5c3[C@H](C2)N(C)CC5)O4)CCN1C,active: 20 µM
13,C/C(=N\NC(=O)c1ccccn1)C12CC3CC(CC(C3)C1)C2,"inconclusive: 100 µM [inhibitor, single point]"
14,CCn1cc(C(=O)NCc2ccccc2OC)c(=O)c2cc(S(=O)(=O)N3CCCCCC3)ccc21,inactive
15,COc1ccc(-c2nnc(SCC(=O)Nc3cccc(Cl)c3C)nc2-c2ccc(OC)cc2)cc1,"inconclusive: 35.5 µM [inhibitor, partial curve]"
16,O=C(Nc1ccc(-n2ccnc2P(=O)(O)c2ccccc2)cc1)c1ccccc1Cl,"inconclusive: 39.8 µM [inhibitor, single point]"
17,Cc1ccc(C2CC(=O)NC(SCc3ccccc3)=C2C#N)o1 (configuration not stated),"inconclusive: 63.1 µM [inhibitor, partial curve, poor fit]"
18,COc1cc(-c2nnc3sc(-c4ccco4)nn23)cc(OC)c1OC,"inconclusive: 79.4 µM [inhibitor, partial curve]"
19,Cc1cc(C)n(-c2nc(C)c(C)c(=O)n2CC(=O)Nc2ccc(Cl)c(Cl)c2)n1,inactive
20,Brc1ccccc1-n1nnc(-c2cccnc2)n1,"inconclusive: 79.4 µM [inhibitor, single point]"
21,O=C(c1ccccc1)N1CCN(c2nc(-c3cccs3)nc3ccccc23)CC1,"inconclusive: 35.5 µM [inhibitor, single point]"
22,COc1ccc(-c2cc(OC(=O)c3cccc(C)c3)c3c(C)oc(C)c3c(=O)c2)cc1,"inconclusive: 44.7 µM [inhibitor, partial curve]"
23,Cc1ccc(C(=O)Nc2ccc(O)cc2C(=O)O)cc1C,"inconclusive: 44.7 µM [inhibitor, partial curve]"

row,Compound,Potency
1,CCC(=NCc1ccc(Cl)c(Cl)c1)c1nc(-c2ccco2)oc1O,"inconclusive: 39.8 µM [inhibitor, partial curve]"
2,COc1ccc(OC)c(NC2c3ccccc3C(=O)N2Cc2ccc3c(c2)OCO3)c1 (configuration not stated),active: 44.7 µM
3,CC(=O)N1c2c(cc(Br)cc2S(=O)(=O)N2CCN(c3ccccc3)CC2)CC1C (configuration not stated),"inconclusive: 56.2 µM [inhibitor, partial curve]"
4,O=C(O)CSc1cc(C(F)(F)F)nc(-c2ccccn2)n1,"inconclusive: 31.6 µM [inhibitor, partial curve]"
5,Cc1ccc(S(=O)(=O)Cc2ccc(C(=O)NCc3ccc4c(c3)OCO4)o2)cc1,"inconclusive: 56.2 µM [inhibitor, partial curve, poor fit]"
6,Nc1[nH]c(=S)[nH]c(=O)c1-c1ccccc1,active: 35.5 µM
7,CCCC(=O)Nc1ccc(Cl)c(NC(=O)CC)c1,"inconclusive: 50.1 µM [inhibitor, partial curve]"
8,CCOC(=O)c1cc(-c2ccccc2)n(CCC(=O)Nc2nc3c(C)cccc3s2)c1C,"inconclusive: 44.7 µM [inhibitor, partial curve]"
9,Cc1cccc(-n2c(=O)c(C#N)cc3c(=O)n4ccccc4nc32)c1,inactive
10,COc1ccc(-n2c(C)c(C)c3c(NCCCN(C)C)ncnc32)cc1,"inconclusive: 39.8 µM [inhibitor, full curve]"
11,Cc1ccccc1NS(=O)(=O)c1ccc2[nH]c3c(c2c1)CCCCC3,active: 44.7 µM
12,O=C(O)c1ccc(COc2ccccc2/C=C2/NC(=O)N(c3cccc(Cl)c3)C2=O)cc1,"inconclusive: 39.8 µM [inhibitor, single point]"
13,CC(C)N1CCc2[nH]c(=S)[nH]c(=O)c2C1,"inconclusive: 50.1 µM [inhibitor, partial curve]"
14,COc1ccc(CCNc2ccc(S(=O)(=O)N3CCCC3)cc2[N+](=O)[O-])cc1,"inconclusive: 7.08 µM [inhibitor, full curve]"
15,CC(C)(c1ccccc1)c1ccc(OCc2ccc(C(=O)O)o2)cc1,"inconclusive: 89.1 µM [inhibitor, partial curve]"
16,O=c1c2sccc2n(Cc2cc(=O)n3ccccc3n2)c(=O)n1-c1cccc(C(F)(F)F)c1,inactive
17,CCN(CC)c1ccc(/C=C2/SC(=O)N(C(C)C)C2=O)o1,"inconclusive: 35.5 µM [inhibitor, single point]"
18,O=C(/C=C/c1ccccc1Cl)NC1CCS(=O)(=O)C1 (configuration not stated),active: 5.01 µM
19,CCOc1ccccc1NC(=S)N1CCN(c2ccc(O)cc2)CC1,"inconclusive: 89.1 µM [inhibitor, partial curve]"
20,COc1cc(NC(=O)c2cccc(C)c2)c(OC)cc1NC(=O)CN1CCCCC1,"inconclusive: 89.1 µM [inhibitor, partial curve, poor fit]"
21,CCOC(=O)C1=C(C)N=c2s/c(=C\c3ccc(OCC(=O)O)cc3)c(=O)n2C1c1ccc(OC(C)C)cc1 (configuration not stated),"inconclusive: 50.1 µM [inhibitor, partial curve]"
22,Cn1c(=O)n(CCc2ccccc2)c(=O)c2c1nc1n2CCCN1Cc1ccccc1,"inconclusive: 44.7 µM [inhibitor, partial curve]"
23,Cc1cc(C(=O)c2cccs2)c(N)s1,"inconclusive: 56.2 µM [inhibitor, partial curve, poor fit]"

row,Compound,Potency
1,Clc1ccc(CN2CCN(c3ncccn3)CC2)c(Cl)c1,active: 17.8 µM
2,Cc1ccc(Cl)cc1N1CCN(C(=O)CCCCCn2c(=O)[nH]c3ccccc3c2=O)CC1,"inconclusive: 56.2 µM [inhibitor, partial curve]"
3,COc1ccc(C2C(C(=O)c3sc(C)nc3C)=C(O)C(=O)N2CCN2CCOCC2)cc1 (configuration not stated),active: 50.1 µM
4,COc1ccc(-c2c(-c3ccsc3)oc3ccc(N4CCOCC4)cc23)cn1,"inconclusive: 35.5 µM [inhibitor, single point]"
5,O=C(/C=C/c1ccco1)N(c1ccccn1)c1ccccn1,active: 22.4 µM
6,Cc1cc(/C=N/n2cnnc2)c(C)n1-c1cccc(Cl)c1,inactive
7,O=S(=O)(O)c1cc(O)c2cc(Nc3ccccc3)ccc2c1,active: 14.1 µM
8,CC(=O)N(C)C(c1ccc(N(C)C)cc1)c1nnnn1-c1c(C)cccc1C (configuration not stated),"inconclusive: 31.6 µM [inhibitor, single point]"
9,COc1ccc(Cl)cc1NC(=O)C1CC(c2ccccc2O)=NO1 (configuration not stated),inactive
10,O=[N+]([O-])c1cc(-c2nnc(Nc3ccc(O)cc3)c3ccccc23)ccc1N1CCOCC1,"inconclusive: 15.8 µM [inhibitor, full curve]"
11,Oc1ccc2ccccc2c1CN1CCN(C/C=C/c2ccccc2)CC1,"inconclusive: 31.6 µM [inhibitor, partial curve]"
12,Fc1ccc(-c2nnc(SCc3cccnc3)o2)cc1,"inconclusive: 3.16 µM [inhibitor, partial curve, poor fit]"
13,Cc1cccc(C(=O)Nc2ccc(OCc3cc(=O)n4ccsc4n3)cc2)c1,inactive
14,CCC(C)NCCCOc1c(C)cc(C)cc1Br (configuration not stated),"inconclusive: 1.78 µM [inhibitor, full curve, poor fit]"
15,O=C(Cn1ccc2cc(S(=O)(=O)N3CCCCCC3)ccc21)NCCc1ccc(Cl)cc1,inactive
16,COc1ccc(NC(=O)c2cc(-c3ccccn3)nc3ccccc23)c(OC)c1,"inconclusive: 100 µM [inhibitor, partial curve]"
17,C/C(=N\NC(=O)c1ccccc1O)c1c(O)cc(C)oc1=O,"inconclusive: 89.1 µM [inhibitor, partial curve]"
18,O=C(COC(=O)c1ccccc1Br)Nc1nnc(-c2ccccc2)o1,"inconclusive: 89.1 µM [inhibitor, single point]"
19,COc1ccc(-c2csc(NC(=O)C3COc4ccccc4O3)n2)cc1OC (configuration not stated),"inconclusive: 39.8 µM [inhibitor, partial curve]"
20,COC(=O)N/N=C/c1cn(CC(C)COc2ccccc2)c2ccccc12 (configuration not stated),"inconclusive: 50.1 µM [inhibitor, partial curve, poor fit]"
21,CCC(C)Cn1c(O)cc2nn(-c3nc4ccccc4s3)c(=O)c-2c1C (configuration not stated),"inconclusive: 79.4 µM [inhibitor, partial curve]"
